# Laboratory results reported in the supplement of paper PMC10037445.
# Several values for one entry are separate records, joined by “and”; a condition that tells them apart may be missing. Identical values can stand only once. Over roughly 2,900 compounds, “NF-kB SEAP reporter activity, fold change vs agonist alone” has its median near 0.99; the highest 2% begin near 2.6. This is one part of the list.
# Legend:
# RAW-Dual [1] = assay: NF-kB SEAP reporter activity, fold change vs agonist alone; higher = enhanced NF-kB activity; conditions: library stock concentration (final ~1000-fold dilution): 10 mM
# Procedure, shortened: (§1)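 RAW-Dual macrophages (50,000 cells/well in DMEM, 384-well plates) received 50 nL of library stock by pin tool, then a PRR agonist 1 h later, and were kept at 37 °C, 5% CO2. After 20 hours, supernatant was read for IRF by QuantiLuc luminescence and for NF-κB by QuantiBlue absorbance at 620 nm. Reporter activity is fold change over agonist-alone wells. Cytotoxic wells had IncuCyte confluency below 70% of agonist controls in both mask sets.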
# RAW-Dual [2] = assay: NF-kB SEAP reporter activity, fold change vs agonist alone; cytotoxicity flag (confluency mask): cytotoxic (confluency <70% of control); higher = enhanced NF-kB activity
# Procedure, shortened: as §1
# RAW-Dual [3] = assay: NF-kB SEAP reporter activity, fold change vs agonist alone; cytotoxicity flag (confluency mask): not cytotoxic; higher = enhanced NF-kB activity
# Procedure, shortened: as §1
# [4] = cytotoxicity flag (confluency mask): cytotoxic (confluency <70% of control), agonist: MPLA (TLR4) […]
# [5] = agonist: ODN 1826 (TLR9) 0.5 ug/mL
# [6] = agonist: Pam2CSK4 (TLR2/6) 0.1 ug/mL
# [7] = agonist: Pam3CSK4 (TLR2/1) 0.1 ug/mL
# [8] = cytotoxicity flag (confluency mask): not cytotoxic, agonist: Imiquimod (TLR7) […]
# [9] = cytotoxicity flag (confluency mask): not cytotoxic, agonist: MPLA (TLR4) […]
smiles,measurement,setting,value
Cl.ClCCN(Cc1ccccc1)Cc1ccccc1,NF-kB SEAP reporter activity,RAW-Dual [1]; [4],0.656
Cl.ClCCN(Cc1ccccc1)Cc1ccccc1 (library stock concentration (final ~1000-fold dilution): 10 mM),NF-kB SEAP reporter activity,RAW-Dual [2]; agonist: LPS (TLR4) 0.1 ug/mL,0.497
same,NF-kB SEAP reporter activity,RAW-Dual [2]; [5],0.569
same,NF-kB SEAP reporter activity,RAW-Dual [2]; [6],0.821
same,NF-kB SEAP reporter activity,RAW-Dual [2]; [7],0.633
Br.CN1C2CC(OC(=O)C(CO)c3ccccc3)CC1C1OC12 (stereo not given),NF-kB SEAP reporter activity,RAW-Dual [1]; [8],0.918
same,NF-kB SEAP reporter activity,RAW-Dual [1]; [9],0.988
Br.CN1C2CC(OC(=O)C(CO)c3ccccc3)CC1C1OC12 (stereo not given) (library stock concentration (final ~1000-fold dilution): 10 mM),NF-kB SEAP reporter activity,RAW-Dual [3]; agonist: LPS (TLR4) 0.1 ug/mL,0.903
same,NF-kB SEAP reporter activity,RAW-Dual [3]; [5],0.993
same,NF-kB SEAP reporter activity,RAW-Dual [3]; [6],0.989
same,NF-kB SEAP reporter activity,RAW-Dual [3]; [7],1.23
O=C([O-])C(Cl)Cl.[Na+] (library stock concentration (final ~1000-fold dilution): 10 mM),NF-kB SEAP reporter activity,RAW-Dual [3]; agonist: LPS (TLR4) 0.1 ug/mL,1.11 and 0.906
same,NF-kB SEAP reporter activity,RAW-Dual [3]; [5],1.14 and 0.982
same,NF-kB SEAP reporter activity,RAW-Dual [3]; [6],1.11 and 0.989
same,NF-kB SEAP reporter activity,RAW-Dual [3]; [7],1.19 and 1.32
CCN1CCN(C(=O)Cc2ccc(Nc3ncc(F)c(Nc4ccc(C(=O)Nc5ccccc5Cl)cc4)n3)cc2)CC1 (library stock concentration (final ~1000-fold dilution): 10 mM),NF-kB SEAP reporter activity,RAW-Dual [2]; agonist: LPS (TLR4) 0.1 ug/mL,1.07
same,NF-kB SEAP reporter activity,RAW-Dual [2]; [5],0.351
same,NF-kB SEAP reporter activity,RAW-Dual [2]; [6],0.508
same,NF-kB SEAP reporter activity,RAW-Dual [2]; [7],1.06
CCN1CCN(C(=O)Cc2ccc(Nc3ncc(F)c(Nc4ccc(C(=O)Nc5ccccc5Cl)cc4)n3)cc2)CC1,NF-kB SEAP reporter activity,"RAW-Dual [1]; cytotoxicity flag (confluency mask): cytotoxic (confluency <70% of control), agonist: Imiquimod (TLR7) […]",1.36
same,NF-kB SEAP reporter activity,RAW-Dual [1]; [4],1.76
CC(O)(CS(=O)(=O)c1ccc(F)cc1)C(=O)Nc1ccc(C#N)c(C(F)(F)F)c1 (stereo not given) (library stock concentration (final ~1000-fold dilution): 10 mM),NF-kB SEAP reporter activity,RAW-Dual [3]; agonist: LPS (TLR4) 0.1 ug/mL,0.883
same,NF-kB SEAP reporter activity,RAW-Dual [3]; [5],1.09
same,NF-kB SEAP reporter activity,RAW-Dual [3]; [6],0.805
same,NF-kB SEAP reporter activity,RAW-Dual [3]; [7],1.1
CC(O)(CS(=O)(=O)c1ccc(F)cc1)C(=O)Nc1ccc(C#N)c(C(F)(F)F)c1 (stereo not given),NF-kB SEAP reporter activity,RAW-Dual [1]; [8],1.05
same,NF-kB SEAP reporter activity,RAW-Dual [1]; [9],1.15
CC(Nc1ncnc2nc[nH]c12)c1nc2ccc(F)cc2c(=O)n1-c1ccccc1 (stereo not given),NF-kB SEAP reporter activity,RAW-Dual [1]; [8],1.76
same,NF-kB SEAP reporter activity,RAW-Dual [1]; [9],1.11
CC(Nc1ncnc2nc[nH]c12)c1nc2ccc(F)cc2c(=O)n1-c1ccccc1 (stereo not given) (library stock concentration (final ~1000-fold dilution): 10 mM),NF-kB SEAP reporter activity,RAW-Dual [3]; agonist: LPS (TLR4) 0.1 ug/mL,1.36
same,NF-kB SEAP reporter activity,RAW-Dual [3]; [5],1.51
same,NF-kB SEAP reporter activity,RAW-Dual [3]; [6],1
same,NF-kB SEAP reporter activity,RAW-Dual [3]; [7],1.63
CNC(=O)Oc1cccc2ccccc12,NF-kB SEAP reporter activity,RAW-Dual [1]; [9],1.21
CNC(=O)Oc1cccc2ccccc12 (library stock concentration (final ~1000-fold dilution): 10 mM),NF-kB SEAP reporter activity,RAW-Dual [3]; agonist: LPS (TLR4) 0.1 ug/mL,1.09
same,NF-kB SEAP reporter activity,RAW-Dual [3]; [5],0.916
same,NF-kB SEAP reporter activity,RAW-Dual [3]; [6],1.04
same,NF-kB SEAP reporter activity,RAW-Dual [3]; [7],0.896
O.O=C1C=CCC2C3CCCN4CCCC(CN12)C34 (stereo not given),NF-kB SEAP reporter activity,RAW-Dual [1]; [8],0.531
same,NF-kB SEAP reporter activity,RAW-Dual [1]; [9],0.792
O.O=C1C=CCC2C3CCCN4CCCC(CN12)C34 (stereo not given) (library stock concentration (final ~1000-fold dilution): 10 mM),NF-kB SEAP reporter activity,RAW-Dual [3]; agonist: LPS (TLR4) 0.1 ug/mL,1.41
same,NF-kB SEAP reporter activity,RAW-Dual [3]; [5],0.558
same,NF-kB SEAP reporter activity,RAW-Dual [3]; [6],0.957
same,NF-kB SEAP reporter activity,RAW-Dual [3]; [7],1.11
C=CC1C2=CCOC(=O)C2=COC1OC1OC(CO)C(O)C(O)C1O (stereo not given) (library stock concentration (final ~1000-fold dilution): 10 mM),NF-kB SEAP reporter activity,RAW-Dual [3]; agonist: LPS (TLR4) 0.1 ug/mL,1.09
same,NF-kB SEAP reporter activity,RAW-Dual [3]; [5],0.966
same,NF-kB SEAP reporter activity,RAW-Dual [3]; [6],1.14
same,NF-kB SEAP reporter activity,RAW-Dual [3]; [7],1.01
C=CC1C2=CCOC(=O)C2=COC1OC1OC(CO)C(O)C(O)C1O (stereo not given),NF-kB SEAP reporter activity,RAW-Dual [1]; [8],0.921
same,NF-kB SEAP reporter activity,RAW-Dual [1]; [9],1.1
